Experimental data taken from paper PMC4336329 (PLoS ONE, 2015).
About 2,200 (0.71%) of roughly 310,000 compounds showed an effect of 50% or more. Effects have a minus sign here. The list shows a part of the results.

What follows are molecules tested against human ether-à-go-go-related gene (hERG) potassium channel (human, UniProt Q12809) (assay: primary screen, population patch clamp on CHO cells stably expressing hERG).
Sequence of human ether-à-go-go-related gene (hERG) potassium channel (Q12809 whole entry, looked up): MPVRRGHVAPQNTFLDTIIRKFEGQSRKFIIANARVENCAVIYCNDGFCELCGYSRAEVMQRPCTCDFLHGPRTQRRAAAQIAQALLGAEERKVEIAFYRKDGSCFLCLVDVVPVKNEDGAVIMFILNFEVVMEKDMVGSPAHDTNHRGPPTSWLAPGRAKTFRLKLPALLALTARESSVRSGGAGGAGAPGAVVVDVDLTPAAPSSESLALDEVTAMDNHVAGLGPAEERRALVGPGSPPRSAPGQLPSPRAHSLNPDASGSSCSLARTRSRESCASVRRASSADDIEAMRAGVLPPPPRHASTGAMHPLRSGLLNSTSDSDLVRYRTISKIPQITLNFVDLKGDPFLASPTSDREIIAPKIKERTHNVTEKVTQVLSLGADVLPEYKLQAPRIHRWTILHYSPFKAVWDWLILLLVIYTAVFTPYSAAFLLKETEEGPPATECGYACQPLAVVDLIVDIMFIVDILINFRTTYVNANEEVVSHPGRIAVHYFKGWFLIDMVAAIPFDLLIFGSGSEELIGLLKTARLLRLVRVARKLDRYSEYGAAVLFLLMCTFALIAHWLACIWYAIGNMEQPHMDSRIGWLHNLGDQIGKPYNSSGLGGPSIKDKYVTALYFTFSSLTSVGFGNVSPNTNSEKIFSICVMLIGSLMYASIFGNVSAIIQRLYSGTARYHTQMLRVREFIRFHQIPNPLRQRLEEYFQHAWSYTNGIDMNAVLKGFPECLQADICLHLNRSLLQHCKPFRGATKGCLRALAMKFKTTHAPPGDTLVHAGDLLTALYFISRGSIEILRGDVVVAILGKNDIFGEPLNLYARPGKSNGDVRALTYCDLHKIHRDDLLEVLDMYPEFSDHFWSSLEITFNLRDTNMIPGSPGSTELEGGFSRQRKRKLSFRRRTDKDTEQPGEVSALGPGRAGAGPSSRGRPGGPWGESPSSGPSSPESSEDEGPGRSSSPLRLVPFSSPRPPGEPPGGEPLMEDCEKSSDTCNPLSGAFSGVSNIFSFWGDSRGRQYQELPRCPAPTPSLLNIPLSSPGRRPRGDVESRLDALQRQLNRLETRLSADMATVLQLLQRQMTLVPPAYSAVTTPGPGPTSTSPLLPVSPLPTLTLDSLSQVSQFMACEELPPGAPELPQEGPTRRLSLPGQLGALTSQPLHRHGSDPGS

| SMILES | hERG current change (%, negative = inhibition) at 1uM |
| --- | --- |
| Cc1cc(C)cc(NC(=S)N2CCC(NC(=O)c3ccccc3C)CC2)c1 | 5.12% |
| COc1ccccc1Oc1ccc(S(=O)(=O)Nc2cccnc2)cc1 | 15.7% |
| Clc1ccccc1CN1CCN(c2ccccc2Cl)CC1 | 14.5% |
| CCOc1ccc(S(=O)(=O)N(C)c2ccc(OCC(=O)NC3=NCCS3)cc2)cc1 | 4.35% |
| O=C(O)/C=C\C(=O)Nc1cccc(NC(=O)c2ccccc2)c1 | 20.2% |
| CCN(Cc1ccccc1)C(=O)CCS(=O)(=O)c1ccc2c(c1)oc(=O)n2C | 9.41% |
| CC(=O)NC(CC(=O)OCC(=O)c1ccc(NC(=O)CC(C)C)cc1)c1ccccc1 (stereo not drawn) | -13.9% |
| COc1cccc(CC(=O)OC(C)C(=O)NCc2ccc3c(c2)OCO3)c1 (stereo not drawn) | 2.03% |
| COc1ccccc1N(CC(O)COc1ccccc1C)S(=O)(=O)c1ccccc1 (stereo not drawn) | 8.57% |
| COc1ccc(N(CC(=O)N/N=C/c2ccccc2F)S(=O)(=O)c2ccccc2)cc1 | -0.884% |
| Cc1nnsc1C(=O)N(Cc1ccccc1)C(C)C | 7.64% |
| N/C(=N\OC(=O)c1ccc2c(c1)OCO2)c1ccc([N+](=O)[O-])cc1 | 3.69% |
| CCOc1ccc(N2CC(C(=O)OCC(=O)c3ccc(OC)cc3)CC2=O)cc1 (stereo not drawn) | -12.8% |
| O=C(CNC(=O)c1cc(Cl)cc([N+](=O)[O-])c1)OCC(=O)N1CCCCC1 | 16% |
| CN(C)CC1CCCCC1OC(=O)/C=C/c1ccccc1.Cl (stereo not drawn) | -0.779% |
| CCOc1cc(NC(=O)c2ccccc2C(=O)O)c(OCC)cc1NC(=O)c1ccccc1F | 3.52% |
| Cc1nnc(Sc2nc3c(c(=O)n(C)c(=O)n3C)n2Cc2ccc(Cl)cc2)s1 | -8.06% |
| Cc1nc2ccc(S(=O)(=O)NCC(=O)N3CCC(C)CC3)cc2s1 | 16.4% |
| COc1ccc(NS(=O)(=O)c2cccc(C(=O)NNC(=O)c3ccccc3O)c2)cc1 | 6.98% |
| Cc1cccc(NC(=O)CSc2nnc(CN3CCOCC3)n2C)c1C | 11.7% |
| COc1ccccc1CC(=O)Nc1ncc(C)s1 | 9.61% |
| CCNC(=O)CON=C1c2ccccc2-c2ccccc21 | 9.97% |
| Cc1nc(COC(=O)c2ccc(CO)cc2)cs1 | 10.1% |
| C/C(N)=C(/C#N)C(=O)CSc1nc2ccccc2c(=O)n1-c1ccccc1C | 12.4% |
| CCOc1ccc(OCC)c(S(=O)(=O)NCc2ccc3c(c2)OCO3)c1 | 3.22% |
| O=C(COC(=O)CNS(=O)(=O)c1ccc2ccccc2c1)Nc1ccc2c(c1)OCO2 | 11.4% |
| CCOC(=O)C1=C(C)N(CCCCCC(=O)O)C(=O)NC1c1cccc([N+](=O)[O-])c1 (stereo not drawn) | 16.6% |

| SMILES | hERG current change (%, negative = inhibition) at 1uM |
| --- | --- |
| CC(=Nc1cc(C(=O)c2ccccc2)ccc1N)C1=C(O)CC(C)(C)CC1=O | 10.8% |
| O=C(/C=C/Nc1ccc(F)cc1Br)c1ccccc1 | 9.82% |
| COc1ccccc1-n1c(SCC(=O)NCc2ccc3c(c2)OCO3)nc2cc([N+](=O)[O-])ccc21 | 3.55% |
| COc1ccc(C(=O)C2CCN(CC(=O)Nc3ccccc3F)CC2)cc1 | 2.46% |
| O=C(CNC(=O)c1ccccc1F)N/N=C/c1ccco1 | 18% |
| COc1ccc(NC(=O)CN(C)C(=O)CSc2ccc(Br)cc2)cc1 | 5.01% |
| Oc1ccccc1/C=N/Nc1ncc(Br)cn1 | 10.2% |
| O=C(CSc1nc2scc(-c3ccco3)c2c(=O)n1-c1ccccc1)N1CCOCC1 | -2.25% |
| CC(C)C(NS(=O)(=O)c1ccc2c(c1)oc(=O)n2C)C(=O)N1CCN(C2CCCCC2)CC1 (stereo not drawn) | 12.4% |
| Cc1cc(C)n(-c2ccc(S(N)(=O)=O)cc2[N+](=O)[O-])n1 | 5.42% |
| Cc1noc(NS(=O)(=O)c2ccc(NC(=O)CCCOc3ccc(Cl)cc3Cl)cc2)c1C | 12.4% |
| O=C(CN1C(=O)NC2(CCCC2)C1=O)NNC(=O)c1ccc(Br)cc1 | 4.51% |
| N#Cc1cc(NCC2CCCO2)c([N+](=O)[O-])cc1C#N (stereo not drawn) | 5.58% |
| Clc1ccsc1-c1csc(-c2cccnc2)n1 | 16.4% |
| Cc1ccnc(-n2c(C)cc(C=C3C(=O)N(C)C(=S)N(C)C3=O)c2C)c1 | 2.58% |
| COc1ccc(C(=O)Cn2cnc3ccccc3c2=O)c(OC)c1 | 6.19% |
| CCCN(CCC)S(=O)(=O)c1ccc(C(=O)Nc2nnc(CSC)o2)cc1 | 7.65% |
| CCOc1ccc(C(=O)NC(=S)Nc2cccc(NC(=O)c3ccco3)c2)cc1[N+](=O)[O-] | 10.3% |
| CC1CC(C)CN(CCCNC(=O)CCNC(=O)Cn2cnc3ccccc3c2=O)C1 (stereo not drawn) | 17.7% |
| Cc1ncsc1CCOC(=O)c1cccnc1.Cl | 15.6% |
| CN1CCN(C(=O)CCN2C(=O)/C(=C/c3ccccc3Cl)SC2=S)CC1 | 5.36% |
| O=S(=O)(NCC(c1ccco1)N1CCN(c2ccccc2)CC1)c1ccc(F)cc1 (stereo not drawn) | 5.95% |
| O=C(NCCc1nnc2ccc(NCc3cccnc3)nn12)c1ccccc1F | 9.78% |
| CC(C)N(Cc1nc2ccccc2c(=O)[nH]1)C(=O)c1ccc(NC(=O)CSc2nnnn2C)cc1 | 10.5% |
| Cc1ccc(CNC(=O)CSc2nc(=O)n3ccccc3n2)cc1 | -8.24% |
| Cc1ccc(C(c2sc3nc(C)nn3c2O)N2CCN(CCO)CC2)cc1 (stereo not drawn) | 3.61% |
| O=C(NC1CCCC1)C(c1cccnc1)N(Cc1ccccc1)C(=O)c1csnn1 (stereo not drawn) | 10.4% |
